The supplement of paper PMC12217912
Some of the results follow. Sequences were assembled here from the parent chain. Values near 0.05 are background.

B1: TEV protease; numbered along this chain (parent)
chain: MGESLFKGPRDYNPISSSICHLTNESDGHTTSLYGIGFGPFIITNKHLFRRNNGTLVVQSLHGVFKVKDTTTLQQHLVDGRDMIIIRMPKDFPPFPQKLKFREPQREERICLVTTNFQTKSMSSMVSDTSCTFPSGDGIFWKHWIQTKDGQCGSPLVSTRDGFIVGIHSASNFTNTNNYFTSVPKNFMELLTNQEAQQWVSGWRLNADSVLWGGHKVFMVKPEEPFQPVKEATQL

Variants of: B1
Assay: raw area under fraction-flipped curve 0-4 h after induction (AUC4h, not background-subtracted), DNA-recorder readout of cleavage of the substrate (dimensionless); higher = more cleavage of the substrate by the protease variant
Details: temperature: 34 °C; time window: 0-4 h after rhamnose induction
Description: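 In vivo DNA recorder in E. coli TOP10(DE3) ΔrhaA at 34 °C. Each TEVp single-site mutant (parent TEVp 0) is paired with a single-site variant of the 7-mer TEVs (canonical ENLYFQ|S). The substrate sits between flexible linkers in a Bxb1-sfGFP-TEVs-SsrA fusion, so cleavage stabilises Bxb1 and speeds flipping of a recombination array, read by NGS. The value is the raw area under the fraction-flipped curve over 0-4 h after rhamnose induction (AUC4h), with ≥20 reads per time point. It is not background-subtracted; inactive controls average about 0.047.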
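Further: Bxb1 expression induced with 0.2% (w/v) L-rhamnose at OD600 near 0.5, cultures sampled hourly, flipped fraction per protease–substrate barcode pair counted by paired-end Illumina sequencing.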

Variant: H76P
- area with substrate ENLYFQA: 0.0619
- area with substrate ENLYFQC: 0.0612
- area with substrate ENLYFQD: 0.0547
- area with substrate ENLYFQE: 0.0607
- area with substrate ENLYFQG: 0.0518
- area with substrate ENLYFQH: 0.051
- area with substrate ENLYFQI: 0.0383
- area with substrate ENLYFQK: 0.062
- area with substrate ENLYFQL: 0.0592
- area with substrate ENLYFQM: 0.0516
- area with substrate ENLYFQP: 0.0564
- area with substrate ENLYFQR: 0.0385
- area with substrate ENLYFQS: 0.0581
- area with substrate ENLYFQT: 0.0647
- area with substrate ENLYFQV: 0.0513
- area with substrate ENLYFQY: 0.056

Variant: V78K
- area with substrate ENLYFQA: 0.0589
- area with substrate ENLYFQF: 0.0428
- area with substrate ENLYFQG: 0.0511
- area with substrate ENLYFQI: 0.0503
- area with substrate ENLYFQK: 0.054
- area with substrate ENLYFQL: 0.0434
- area with substrate ENLYFQM: 0.0561
- area with substrate ENLYFQN: 0.052
- area with substrate ENLYFQP: 0.0545
- area with substrate ENLYFQR: 0.0444
- area with substrate ENLYFQS: 0.0588
- area with substrate ENLYFQT: 0.0721
- area with substrate ENLYFQV: 0.0519
- area with substrate ENLYFQW: 0.0552

Variant: V78M
- area with substrate ENLYFQA: 0.105
- area with substrate ENLYFQC: 0.11
- area with substrate ENLYFQD: 0.0764
- area with substrate ENLYFQE: 0.0576
- area with substrate ENLYFQF: 0.0536
- area with substrate ENLYFQG: 0.0937
- area with substrate ENLYFQH: 0.0752
- area with substrate ENLYFQI: 0.0568
- area with substrate ENLYFQK: 0.0412
- area with substrate ENLYFQL: 0.051
- area with substrate ENLYFQM: 0.0787
- area with substrate ENLYFQN: 0.0891
- area with substrate ENLYFQP: 0.0583
- area with substrate ENLYFQQ: 0.0839
- area with substrate ENLYFQR: 0.0565
- area with substrate ENLYFQS: 0.0988
- area with substrate ENLYFQT: 0.0601
- area with substrate ENLYFQW: 0.0521
- area with substrate ENLYFQY: 0.0854

Variant: D82I
- area with substrate ENLYFQA: 0.0388
- area with substrate ENLYFQG: 0.0461
- area with substrate ENLYFQK: 0.029
- area with substrate ENLYFQL: 0.0038
- area with substrate ENLYFQN: 0.0255
- area with substrate ENLYFQS: 0.0489
- area with substrate ENLYFQV: 0.0303
- area with substrate ENLYFQW: 0.0435

Variant: M83A
- area with substrate ENLYFQA: 0.0875
- area with substrate ENLYFQC: 0.0935
- area with substrate ENLYFQD: 0.0556
- area with substrate ENLYFQF: 0.0716
- area with substrate ENLYFQG: 0.0808
- area with substrate ENLYFQH: 0.0564
- area with substrate ENLYFQI: 0.0511
- area with substrate ENLYFQK: 0.0595
- area with substrate ENLYFQL: 0.0614
- area with substrate ENLYFQM: 0.092
- area with substrate ENLYFQP: 0.0523
- area with substrate ENLYFQQ: 0.0631
- area with substrate ENLYFQR: 0.0555
- area with substrate ENLYFQS: 0.0799
- area with substrate ENLYFQT: 0.0711
- area with substrate ENLYFQV: 0.0438
- area with substrate ENLYFQY: 0.0663

Variant: M83Q
- area with substrate ENLYFQA: 0.0743
- area with substrate ENLYFQC: 0.094
- area with substrate ENLYFQD: 0.009
- area with substrate ENLYFQF: 0.0868
- area with substrate ENLYFQG: 0.0726
- area with substrate ENLYFQI: 0.0469
- area with substrate ENLYFQK: 0.0576
- area with substrate ENLYFQL: 0.0605
- area with substrate ENLYFQM: 0.0663
- area with substrate ENLYFQN: 0.0559
- area with substrate ENLYFQQ: 0.0323
- area with substrate ENLYFQR: 0.057
- area with substrate ENLYFQS: 0.0696
- area with substrate ENLYFQW: 0.071

Variant: M83S
- area with substrate ENLYFQA: 0.0827
- area with substrate ENLYFQE: 0.0576
- area with substrate ENLYFQH: 0.0689
- area with substrate ENLYFQI: 0.0436
- area with substrate ENLYFQK: 0.0552
- area with substrate ENLYFQL: 0.05
- area with substrate ENLYFQN: 0.0359
- area with substrate ENLYFQQ: 0.067
- area with substrate ENLYFQR: 0.0528
- area with substrate ENLYFQS: 0.0688
- area with substrate ENLYFQT: 0.0585
- area with substrate ENLYFQW: 0.0545
- area with substrate ENLYFQY: 0.0914

Variant: M83Y
- area with substrate ENLYFQA: 0.0737
- area with substrate ENLYFQC: 0.0904
- area with substrate ENLYFQF: 0.0497
- area with substrate ENLYFQH: 0.0468
- area with substrate ENLYFQK: 0.0498
- area with substrate ENLYFQM: 0.0621
- area with substrate ENLYFQN: 0.0538
- area with substrate ENLYFQP: 0.0674
- area with substrate ENLYFQR: 0.0167
- area with substrate ENLYFQS: 0.069
- area with substrate ENLYFQT: 0.0514
- area with substrate ENLYFQW: 0.0564

Variant: I86A
- area with substrate ENLYFQA: 0.067
- area with substrate ENLYFQC: 0.0614
- area with substrate ENLYFQD: 0.0523
- area with substrate ENLYFQG: 0.0632
- area with substrate ENLYFQI: 0.06
- area with substrate ENLYFQK: 0.0539
- area with substrate ENLYFQL: 0.0559
- area with substrate ENLYFQM: 0.0862
- area with substrate ENLYFQN: 0.0421
- area with substrate ENLYFQP: 0.0376
- area with substrate ENLYFQR: 0.0661
- area with substrate ENLYFQS: 0.0685
- area with substrate ENLYFQT: 0.0589
- area with substrate ENLYFQW: 0.0536

Variant: I86G
- area with substrate ENLYFQA: 0.0398
- area with substrate ENLYFQL: 0.0435
- area with substrate ENLYFQS: 0.043
- area with substrate ENLYFQW: 0.0352
- area with substrate ENLYFQY: 0.0535

Variant: I86Y
- area with substrate ENLYFQA: 0.0604
- area with substrate ENLYFQF: 0.0704
- area with substrate ENLYFQI: 0.0545
- area with substrate ENLYFQL: 0.0557
- area with substrate ENLYFQM: 0.053
- area with substrate ENLYFQS: 0.0617

Variant: M88K
- area with substrate ENLYFQA: 0.0552
- area with substrate ENLYFQC: 0.0727
- area with substrate ENLYFQG: 0.0579
- area with substrate ENLYFQH: 0.0489
- area with substrate ENLYFQM: 0.0599
- area with substrate ENLYFQN: 0.0633
- area with substrate ENLYFQP: 0.0414
- area with substrate ENLYFQS: 0.0674
- area with substrate ENLYFQT: 0.0619

Variant: M88S
- area with substrate ENLYFQA: 0.08
- area with substrate ENLYFQG: 0.0868
- area with substrate ENLYFQI: 0.0553
- area with substrate ENLYFQK: 0.0699
- area with substrate ENLYFQL: 0.0565
- area with substrate ENLYFQM: 0.0752
- area with substrate ENLYFQN: 0.0641
- area with substrate ENLYFQP: 0.0531
- area with substrate ENLYFQR: 0.0499
- area with substrate ENLYFQS: 0.0834
- area with substrate ENLYFQV: 0.0557
- area with substrate ENLYFQW: 0.0346

Variant: K90Q
- area with substrate ENLYFQA: 0.11
- area with substrate ENLYFQD: 0.0708
- area with substrate ENLYFQF: 0.0882
- area with substrate ENLYFQG: 0.0831
- area with substrate ENLYFQI: 0.061
- area with substrate ENLYFQK: 0.0581
- area with substrate ENLYFQL: 0.0533
- area with substrate ENLYFQR: 0.0682
- area with substrate ENLYFQS: 0.104
- area with substrate ENLYFQT: 0.0634
- area with substrate ENLYFQV: 0.0588
- area with substrate ENLYFQW: 0.0727

Variant: D91L
- area with substrate ENLYFQA: 0.14
- area with substrate ENLYFQE: 0.0632
- area with substrate ENLYFQL: 0.0695
- area with substrate ENLYFQQ: 0.108
- area with substrate ENLYFQR: 0.0642
- area with substrate ENLYFQS: 0.0968
- area with substrate ENLYFQT: 0.0775
